In the supplement of paper PMC3334620:
Over roughly 33,000 sequences, “E-score (-0.5 to 0.5)” has its median near -0.021; the highest 2% begin near 0.32. The list shows a part of the results.

The sequences below were run against T1, Zap1 (UniProt P47043) (assay: PBM E-score (8-mer binding enrichment) (E-score (-0.5 to 0.5)); higher = stronger / more preferred TF binding; most listed sequences are background and not binding sites). Settings: protein concentration: 200 nM; construct: GST-full length.
T1 sequence: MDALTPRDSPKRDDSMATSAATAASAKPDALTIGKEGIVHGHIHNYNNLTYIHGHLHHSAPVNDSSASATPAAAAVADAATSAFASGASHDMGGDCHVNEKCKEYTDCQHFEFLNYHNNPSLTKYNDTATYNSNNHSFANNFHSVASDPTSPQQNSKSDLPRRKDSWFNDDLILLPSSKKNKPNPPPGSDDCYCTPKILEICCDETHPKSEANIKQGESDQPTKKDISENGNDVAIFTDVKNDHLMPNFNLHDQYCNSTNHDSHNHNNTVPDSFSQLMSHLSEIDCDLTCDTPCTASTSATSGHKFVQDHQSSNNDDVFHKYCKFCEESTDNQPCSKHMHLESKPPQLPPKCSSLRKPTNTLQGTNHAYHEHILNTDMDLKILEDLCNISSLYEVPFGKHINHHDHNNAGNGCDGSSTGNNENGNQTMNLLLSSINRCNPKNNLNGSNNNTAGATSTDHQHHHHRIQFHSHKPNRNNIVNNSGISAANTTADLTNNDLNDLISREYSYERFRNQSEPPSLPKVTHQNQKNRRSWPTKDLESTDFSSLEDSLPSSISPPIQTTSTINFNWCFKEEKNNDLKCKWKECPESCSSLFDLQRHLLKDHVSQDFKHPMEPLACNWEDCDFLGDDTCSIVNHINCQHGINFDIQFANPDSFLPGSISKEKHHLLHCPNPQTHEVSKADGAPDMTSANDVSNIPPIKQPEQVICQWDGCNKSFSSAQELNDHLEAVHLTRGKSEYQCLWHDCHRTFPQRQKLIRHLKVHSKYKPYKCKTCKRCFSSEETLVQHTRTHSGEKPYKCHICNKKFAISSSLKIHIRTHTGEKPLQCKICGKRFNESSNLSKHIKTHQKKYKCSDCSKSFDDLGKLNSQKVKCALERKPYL
Outline: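 Yeast transcription factors carrying a GST tag, as full-length proteins or DNA-binding domains, were produced by PURExpress in vitro transcription/translation. About 100-200 nM protein was applied to universal all-10-mer Agilent arrays, double-stranded by primer extension on fresh or once-stripped slides. Bound protein was detected with fluorescent anti-GST, and scans were normalised with masliner. The Universal PBM Analysis Suite gave each ungapped eight-base word, pooled with its reverse complement, an E-score, a modified Wilcoxon-Mann-Whitney statistic.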

Sequence | PBM E-score
GTGGTACA | 0.146
ACCGCTTG | 0.205
CAACGGGA | -0.132
AAGGCAAA | 0.0479
ACGTTCTA | 0.0965
AGATTTCC | 0.0606
CGACATCC | -0.0664
GCCGACTA | -0.0789
CTGGTCTA | -0.187
AGTAGAAT | -0.00836
AGTAGCGA | -0.0593
AGTCCGGA | 0.0462
CCAATAAA | 0.173
GACCTGTA | 0.0243
CTGGTTGA | -0.165
GGAAGCTA | -0.14
CGGTATGC | -0.233
CAGTATGA | 0.0911
ACGGCATG | -0.155
AGACACAG | 0.011
CACCACGA | 0.142
AAAATAAT | 0.201
AAAAGAAC | 0.1
CTCGATAA | 0.0638
CCCCGTCG | -0.123

Sequence | PBM E-score
AGACACAT | -0.0603
GCACAGAC | -0.0948
CGAAGGTA | 0.236
GTAGCTGA | -0.14
ACATTTGG | -0.158
ATAAAGGA | -0.0605
ACCGTTCA | 0.02
ATGGGTGG | -0.0593
ACGCAGAC | -0.169
ATGTGACG | -0.0996
GTGCAAGA | 0.0237
ACTCACAT | -0.0862
ATTATTCC | 0.128
GCCCGCCC | -0.176
GTTAACCA | 0.338
CACAGTAA | 0.203
GAAAGTGC | -0.178
CTTTAAGA | 0.255
GAGCGACA | -0.0711
GCTGAGCA | -0.146
CGGAAGAG | -0.0687
GGATATGA | 0.0866
ACAAACTC | -0.0432
AAAAATAC | 0.0953
ACCTACGG | -0.167

Sequence | PBM E-score
CTCTCGAA | 0.0806
GTGAACTA | 0.0669
AAGTCGGA | -0.022
AATCAGAT | -0.0999
GAAGGAAC | -0.0592
TGCCGCCA | -0.0646
AGCTCGAG | -0.0098
CGTATACG | 0.00634
AACTAGAC | 0.0394
GAATTTCC | 0.0639
ATCAGGCC | -0.163
GTCATATA | 0.103
GAGCGCAC | -0.28
CAGAGGCG | -0.171
CAGTCTTC | -0.293
AAGTGAAT | 0.13
TAGTTACA | 0.158
CTCGCCAG | -0.0146
CACCCGGC | -0.282
GTCCGGAC | 0.0507
ACCAATCG | 0.0293
ACTCGCTG | -0.0868
GTTCCAAC | 0.106
ACCTCAGG | 0.12
AGAATGAC | -0.0217

Sequence | PBM E-score
CACTCGAA | -0.057
CTCTACCA | -0.00346
AGAGGGAT | -0.136
AGTAGTGA | -0.0185
GGCTATCA | -0.0212
AGGGAGGG | -0.0587
GCGGACAA | 0.0496
AAGAGTTG | -0.0115
AGTATGCA | -0.0396
CTACGAGA | -0.0215
ATGCTTGG | -0.157
CATGCGCG | -0.0649
ATCGATCC | -0.193
AAGAAGTC | -0.0784
AGAAGAGA | -0.205
ATTTTTCA | 0.0605
CCTCCCCG | 0.0923
AGGAATTA | -0.0385
CGATCAAA | -0.0713
TAACCGCA | 0.426
GGGTTAAA | 0.443
GGTCCGAC | -0.053
AATGGAGC | -0.168
CAGTTTCG | -0.0054
CTTCTGTA | 0.117

Sequence | PBM E-score
GCGACCGA | 0.0401
AACTTCCC | -0.188
CGAGAAAG | -0.102
AAGTTTGC | -0.00289
CGAGCAGA | -0.189
AACGCACA | 0.0441
GCCGCGGC | 0.216
ATCATGGA | -0.265
ATTTCCTC | 0.0612
CATAGCGG | -0.155
CGCTCTGC | -0.213
AACTCGTA | 0.0754
CAGATTCG | 0.0678
CCAGACCC | -0.0238
ACCAGATG | 0.0966
CCGAGGGA | -0.206
GGTGACAC | 0.0434
AGGCGCCA | -0.202
CGGGCCCC | 0.0471
GGGACTCA | -0.183
TCGCACGA | -0.152
CCTGCTCC | -0.129
AATCATGA | 0.23
AATAAAAG | 0.0506
CCAAGTCA | -0.124

Sequence | PBM E-score
TCAAGACA | -0.154
AGTTTGGC | -0.00783
AAAAACTT | 0.0552
CAGCGGGC | -0.212
CAAACAGG | 0.11
CAGCTCCA | -0.123
AATACAAG | 0.204
CCGCCCCC | -0.343
CTCGAAAC | 0.0951
GCTTCATA | -0.00903
AAGCAAAA | 0.181
CACACGGG | -0.0693
CTGTGGGA | -0.163
CTAATTTC | 0.0406
TAGAGAAA | 0.0849
GCGATAGC | -0.138
CAAATACA | 0.0399
AGCTCACC | -0.174
ACAACCAT | 0.322
AGTCCGAG | -0.0989
AGCACTGG | -0.0411
GATCCAAA | 0.0695
CCACTGAG | -0.00988
TACTACTA | 0.267
ACCGCATC | 0.144

Sequence | PBM E-score
AGATCACC | 0.0422
CGCGATTC | -0.109
CTCATCTA | 0.102
ACACTCGT | -0.0522
AACATTAA | 0.143
TACCGGGA | 0.0137
AGTACAGA | 0.0397
CGAATCAG | -0.207
ATACCTAG | 0.0153
AAGAGGAG | -0.199
AGTGTGTA | 0.0485
CACCTTTA | 0.118
GAGTTATC | 0.108
GATTCAAA | -0.0314
CATCCCAC | -0.0285
ACTAATGG | 0.202
GATAGTGC | -0.209
CAGAGCCG | -0.066
CGGCGCCA | -0.132
CCTGACAC | -0.109
ACGCCCCG | 0.0434
CAAATTCA | -0.169
AATGTCCA | 0.057
GTTTGGGA | 0.0131
AACAAGCT | -0.0792

Sequence | PBM E-score
CCACCCGC | 0.269
ACACCACT | 0.217
GTAATTGA | 0.0961
GATTTACC | 0.021
CTAGCTAC | -0.193
ATGGCAAT | -0.109
GACCGGGA | -0.0808
GAACTTCC | -0.25
TGGTATAA | 0.231
AGATATCA | -0.0283
CATAACGC | 0.0481
CATAGCGC | -0.12
AAACGAAA | 0.0922
AAGCTCAG | -0.127
TAAGCTCA | -0.227
CCACACGA | -0.06
CGTTTGAG | -0.0505
AACGCGTT | 0.00119
GTTCCCCA | 0.179
TAGGAACA | -0.0136
GATGTGAA | -0.0219
GATATACC | -0.00451
AAACTTCC | -0.0232
CTGTGGGC | 0.0073
GGCACCGA | 0.0124

Sequence | PBM E-score
CCATACCC | 0.29
CGGAGACA | -0.076
AGGAGGGC | -0.249
CTGGGAGC | -0.315
CCATTCCA | 0.022
AACGCGTC | -0.155
CAACAGAG | 0.0227
AAAACATC | 0.075
GCGAAATA | 0.15
CGCGGTGA | 0.144
GAAGCAAC | 0.106
CCCCCGGA | -0.235
ACCCTTAT | 0.404
AAAATTCG | 0.0999
AATCGCGC | -0.138
ATCCGAAC | -0.0761
AGCTTTCC | -0.202
AGAGCCGA | 0.0742
AGGTGAGA | 0.069
